# Measurements taken from the supplement of paper PMC8728848.
# The list shows a part of the results.
# B1: Flo5 (Saccharomyces cerevisiae), P38894 (protein)
# chain: MGSSHHHHHHSSGLVPRGSHMSGATEACLPAGQRKSGMNINFYQYSLKDSSTYSNAAYMAYGYASKTKLGSVGGQTDISIDYNIPCVSSSGTFPCPQEDSYGNWGCKGMGACSNSQGIAYWSTDLFGFYTTPTNVTLEMTGYFLPPQTGSYTFSFATVDDSAILSVGGSIAFECCAQEQPPITSTNFTINGIKPWDGSLPDNITGTVYMYAGYYYPLKVVYSNAVSWGTLPISVELPDGTTVSDNFEGYVYSFDDDLSQSNCTIPDPSIH
# Key:
# Assay in all cases: glycan array binding signal (z-score within array); higher = stronger binding
# Details in all cases: glycan notation: IUPAC condensed, linker removed
# [1] = target: Fuc(a1-2)[Gal(a1-3)]Gal(b1-4)GlcNAc(b1-2)Man(a1-3)[Fuc(a1-2)[Gal(a1-3)]Gal(b1-4)GlcNAc(b1-2)Man(a1-6)]Man(b1-4)GlcNAc(b1-4)GlcNAc
# Procedure, shortened: (§1)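 The binding signal is a Z-score computed within each array. Data were drawn from 3228 arrays in the Consortium for Functional Glycomics database, restricted to those with a known protein sequence. Scores were averaged over arrays of the same protein sequence at different concentrations or buffers, and over linkers, and negative values can be taken as non-binding.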
# [2] = target: Fuc(a1-2)[Gal(a1-3)]Gal(b1-4)[Fuc(a1-3)]GlcNAc
# Procedure, shortened: as §1
# [3] = target: Fuc(a1-2)[Gal(a1-4)]Gal(b1-4)GlcNAc
# Procedure, shortened: as §1
# [4] = target: Fuc(a1-2)[GalNAc(a1-3)]Gal
# Procedure, shortened: as §1
# [5] = target: Fuc(a1-2)[GalNAc(a1-3)]Gal(b1-3)GlcNAc
# Procedure, shortened: as §1
# [6] = target: Fuc(a1-2)[GalNAc(a1-3)]Gal(b1-3)GlcNAc(b1-2)Man(a1-3)[Fuc(a1-2)[GalNAc(a1-3)]Gal(b1-3)GlcNAc(b1-2)Man(a1-6)]Man(b1-4)GlcNAc(b1-4)GlcNAc
# Procedure, shortened: as §1
# [7] = target: Fuc(a1-2)[GalNAc(a1-3)]Gal(b1-4)Glc
# Procedure, shortened: as §1
# [8] = target: Fuc(a1-2)[GalNAc(a1-3)]Gal(b1-4)GlcNAc
# Procedure, shortened: as §1
# [9] = target: Fuc(a1-2)[GalNAc(a1-3)]Gal(b1-4)GlcNAc(b1-2)Man(a1-3)[GalNAc(a1-3)[Fuc(a1-2)]Gal(b1-4)GlcNAc(b1-2)Man(a1-6)]Man(b1-4)GlcNAc(b1-4)GlcNAc
# Procedure, shortened: as §1
# [10] = target: Fuc(a1-2)[GalNAc(a1-3)]Gal(b1-4)GlcNAc(b1-3)Gal(b1-4)GlcNAc
# Procedure, shortened: as §1
# [11] = target: Fuc(a1-2)[GalNAc(a1-3)]Gal(b1-4)GlcNAc(b1-3)Gal(b1-4)GlcNAc(b1-3)Gal(b1-4)GlcNAc
# Procedure, shortened: as §1
# [12] = target: Fuc(a1-2)[GalNAc(a1-3)]Gal(b1-4)[Fuc(a1-3)]GlcNAc
# Procedure, shortened: as §1
# [13] = target: Fuc(a1-2)[GalNAc(a1-4)]Gal(b1-4)GlcNAc
# Procedure, shortened: as §1
# [14] = target: Fuc(a1-2)[GalNAc(b1-3)]Gal
# Procedure, shortened: as §1
# [15] = target: Fuc(a1-3)GlcNAc
# Procedure, shortened: as §1
# [16] = target: Fuc(a1-3)[Gal(b1-4)]Glc6S
# Procedure, shortened: as §1
# [17] = target: Fuc(a1-3)[Gal(b1-4)]GlcNAc
# Procedure, shortened: as §1
# [18] = target: Fuc(a1-3)[Gal(b1-4)]GlcNAc(b1-2)Man(a1-3)[Fuc(a1-3)[Gal(b1-4)]GlcNAc(b1-2)Man(a1-6)]Man(b1-4)GlcNAc(b1-4)GlcNAc
# Procedure, shortened: as §1
# [19] = target: Fuc(a1-3)[Gal(b1-4)]GlcNAc(b1-2)Man(a1-6)[Gal(b1-4)GlcNAc(b1-2)Man(a1-3)]Man(b1-4)GlcNAc(b1-4)GlcNAc
# Procedure, shortened: as §1
# [20] = target: Fuc(a1-3)[Gal(b1-4)]GlcNAc(b1-3)Gal(b1-3)[Fuc(a1-4)]GlcNAc
# Procedure, shortened: as §1
# [21] = target: Fuc(a1-3)[Gal(b1-4)]GlcNAc(b1-4)Gal(b1-4)[Fuc(a1-3)]GlcNAc
# Procedure, shortened: as §1
# [22] = target: Fuc(a1-3)[Gal(b1-4)]GlcNAc(b1-4)Gal(b1-4)[Fuc(a1-3)]GlcNAc(b1-4)Gal(b1-4)[Fuc(a1-3)]GlcNAc
# Procedure, shortened: as §1
# [23] = target: Fuc(a1-3)[Gal(b1-4)]GlcNAc6S
# Procedure, shortened: as §1
# [24] = target: Fuc(a1-3)[Gal3S(b1-4)]Glc6S
# Procedure, shortened: as §1
# [25] = target: Fuc(a1-3)[Gal3S(b1-4)]GlcNAc
# Procedure, shortened: as §1
# [26] = target: Fuc(a1-3)[Gal3S(b1-4)]GlcNAc6S
# Procedure, shortened: as §1
# [27] = target: Fuc(a1-3)[GalNAc(b1-4)]GlcNAc
# Procedure, shortened: as §1
# [28] = target: Fuc(a1-3)[Neu5Ac(a2-3)]Gal(b1-4)GlcNAc(b1-3)GalNAc
# Procedure, shortened: as §1
# [29] = target: Fuc(a1-4)GlcNAc
# Procedure, shortened: as §1
# [30] = target: Fuc(b1-3)GlcNAc
# Procedure, shortened: as §1
# [31] = target: Gal(a1-2)Gal
# Procedure, shortened: as §1
# [32] = target: Gal(a1-3)Gal
# Procedure, shortened: as §1
# [33] = target: Gal(a1-3)Gal(b1-3)GlcNAc
# Procedure, shortened: as §1
# [34] = target: Gal(a1-3)Gal(b1-4)Glc
# Procedure, shortened: as §1
# [35] = target: Gal(a1-3)Gal(b1-4)GlcNAc
# Procedure, shortened: as §1
# [36] = target: Gal(a1-3)Gal(b1-4)[Fuc(a1-3)]GlcNAc
# Procedure, shortened: as §1
# [37] = target: Gal(a1-3)Gal(b1-4)[Fuc(a1-3)]GlcNAc(b1-2)Man(a1-3)[Gal(a1-3)Gal(b1-4)[Fuc(a1-3)]GlcNAc(b1-2)Man(a1-6)]Man(b1-4)GlcNAc(b1-4)GlcNAc
# Procedure, shortened: as §1
binder,measurement,setting,value
B1,glycan array binding signal (z-score),[1],-0.193
same,glycan array binding signal (z-score),[2],0.081
same,glycan array binding signal (z-score),[3],-0.23
same,glycan array binding signal (z-score),[4],-0.121
same,glycan array binding signal (z-score),[5],-0.082
same,glycan array binding signal (z-score),[6],0.586
same,glycan array binding signal (z-score),[7],-0.116
same,glycan array binding signal (z-score),[8],-0.156
same,glycan array binding signal (z-score),[9],-0.102
same,glycan array binding signal (z-score),[10],-0.148
same,glycan array binding signal (z-score),[11],-0.082
same,glycan array binding signal (z-score),[12],0.079
same,glycan array binding signal (z-score),[13],3.78
same,glycan array binding signal (z-score),[14],-0.197
same,glycan array binding signal (z-score),[15],-0.14
same,glycan array binding signal (z-score),[16],-0.024
same,glycan array binding signal (z-score),[17],-0.132
same,glycan array binding signal (z-score),[18],-0.126
same,glycan array binding signal (z-score),[19],-0.206
same,glycan array binding signal (z-score),[20],-0.136
same,glycan array binding signal (z-score),[21],-0.164
same,glycan array binding signal (z-score),[22],-0.162
same,glycan array binding signal (z-score),[23],-0.047
same,glycan array binding signal (z-score),[24],0.333
same,glycan array binding signal (z-score),[25],-0.187
same,glycan array binding signal (z-score),[26],0.19
same,glycan array binding signal (z-score),[27],-0.135
same,glycan array binding signal (z-score),[28],-0.232
same,glycan array binding signal (z-score),[29],-0.092
same,glycan array binding signal (z-score),[30],-0.16
same,glycan array binding signal (z-score),[31],-0.108
same,glycan array binding signal (z-score),[32],-0.103
same,glycan array binding signal (z-score),[33],-0.158
same,glycan array binding signal (z-score),[34],-0.14
same,glycan array binding signal (z-score),[35],-0.217
same,glycan array binding signal (z-score),[36],-0.183
same,glycan array binding signal (z-score),[37],-0.127
